The RNAGym collection of RNA variant scans (doi:10.1093/nar/gkz1192)
Read counts are not given, so values of variants with three or more changes are uncertain.

B1: CPEB3 Ribozyme (parent)
chain: UAACAGGGGGCCACAGCAGAAGCGUUCACGUCGCAGCCCCUGUCAGAUUCUGGUGAAUCUGCGAAUUCUGCUGUAUAUCUC

Variants of: B1
Test: self-cleavage, relative activity (ratio to wild type); higher = more cleavage; in vitro, sequencing
Procedure, shortened: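 CPEB3 self-cleaving ribozyme mutant libraries were made by rounds of error-prone PCR, barcoded, and transcribed in vitro with T7 RNA polymerase for 5 hours at 37°C. Cleavage occurred during transcription and a 15 min DNase I step before EDTA stop. RNAs were reverse transcribed with template switching and Illumina-sequenced, with DNA sequencing mapping barcodes to variants. Relative activity is the variant's cleaved/total read fraction divided by wild type's (minimum 5 reads), averaged across three batches.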

| Variant | self-cleavage |
| --- | --- |
| UAACAAGGGGCCACAGCAGAAGCGUUCACGUCGCCGCCCCUGUCGGACUCUGGUGAUUCUGCGAGUUCUGCUGUAUAUCUC | 0.1 |
| UAACAAGGGGCCACAGCAGAAGCGUUCGCGUCGCAGCCCCUGUCAGAUUCUGGUGAUUCUGCGAAUUCUGCUGUAUAUCUC | 0.06 |
| UAACAAGGGGCCUCAGCAGAAGCGCUCACGUCGCAGCCCCUGUCAGAUUCUGGUGAAUCUGCGAACUCUGCUGUAUAUCUC | 0.11 |
| UAACAAGGGGCCACAGCAGAGGCGACCACGCCGCUGCCCCUGUCAGAUUCUGGUGAAUCUGCGGAUUCUGCUGUAUAUCUC | 0.04 |
| UAACAAGGGGCCUCAGCAGAAGCGUUCACGUCGCAGCCCCUGUCUGAUUCUGGUGAAUCUGCGAAUUCUGCUGUAUAUCAC | 0.68 |
| UAACAAGGGGCCACAGCAGAAGCGUUCACGUCGCAGCCCCUGUCAGAUUCUGGUGAAUCUGCGAGUUCUGCUGUACAUCUC | 0.05 |
| UAACAAGGGGCCACAGCCGAAGCGUCCACGUCGCAGCCCCCGUCAGAUUCUGGUGAAUCCGCGAAUUCUGCUGUAUAUCUC | 0.06 |
| UAACAAGGGGCCACAGCAGAAGCGUUCUCGUCGCAGUCCCUGUCAGAUUCAGGUGAAUCUGCGAAUUCUGCUGUAUAUCUC | 0.07 |
| UAACAAGGGGCCACAGCAGAAGCGUUCACGUCGCAGCCCCUGUCGGAUUCUGGUGAAUCAGCAAAUUCUGCUGUAUAUCAC | 0.06 |
| UAACAAGGGGCCACAGCGGAGGCGUUCACGUCGCAGCCCCUGUCAGAUUCUGGUGAAUCUGCGAAUUCUGCUGUAUAUCUC | 0.07 |
| UAACAAGGGGCCGCAGCAGAAGCGCUCACGUCGCAGCCCCUGCCAUACUCUGGUGAAUCUGCGAAUUCUGCUGUAUAUCUC | 0.05 |
| UAACAAGGGGCCACAGCAGAAGCGUUCACGUAGCAGCCCCUGUCGGAUUCUGGUGAAUCUGCGAAUUCUGCUGUAUUUCUC | 0 |
| UAACAAGGGGCCACAGCAGUGGCGUUCACGUCGCAGCCCCUGUCAGGUUCUGGUGAACCUGCGAAUUCUGCUGUAUAUCUC | 0.06 |
| UAACAAGGGGCCACAGCAGAAGCGUUCGCGUCGCGGCCCCUGUCAGAUUCUGGCGAAUCUGCGAAUUCUGCUGUAUAUCUC | 0.35 |
| UAACAAGGGGCCACAGCAGAGGCGUUCACGUCGCAGCCCCUGUCAGAUUCUGGCGAAUCUGCGAAUUCUGCUGUAUAUCUC | 0.1 |
| UAACAAGGGGCGACAGCAGAAGCGUUCACGUCGCAGCCCCCGUCAGAUUCUGGUGAAUCUGCGAAUUCUGCUGUAUAUCUC | 0.31 |
| UAACAAGGGGCCACAGCAGAAGCGUUCACGUCGCAGCCCCUGUCAGAUUCUGGUGUAUCAGCGAAUCCUGCUGUAUGUCUC | 0.05 |
| UAACAAGGGGCCACCGCAGAAGCGUUCACGUCGCAGCCCUUGUCAGAUUCUGGUGAGUCUGCGAAUUCUGCUGUAUAUCUC | 0.33 |
| UAACAAGGGGCCGCAGCAGAAGCGUUCACAUCGCAGCCCCUGUCAGGUUCUGGUGAAUCUGCGAACUCUGCUAUAUACCUC | 0.04 |
| UAACAAGGGGCCUCAGCAGAAGCGUUCUCGUCGCAGCCCCUGUCUGAUUCUGGUGAAUCUGCGAAUUCUGCUGUAUUUCUC | 0.05 |
| UAACAAGGGGCCACAGCAGAAGCGUUCACGUCGCAGCGCCAGUCCGAUUCUGGUGAACCUGCGAAUGCUGCUGUAUAUCUC | 0.29 |
| UAACAAGGGGCCUCGGCAGAGGCGUUCUCGUCGCAGCCCCUGUCAGAUUCUGGUGAAUCUGCGAAUUCUGCCGUAUAUCUC | 0.08 |
| UAACAAGGGGCCUCAGCAGAAGCGUUCACGUCGCAGCCCCUGUCAGAUUCAGGUGAAUCUGCGAAUUCUGCUGUAUAUCUC | 0.18 |

| Variant | self-cleavage |
| --- | --- |
| UAACAAGGGGCCACAGCAGAAGCGUUCUCGUCGCAGCCCCUGUCAGAUUCUGGUGAAUCUGCGAAUUCUGUUGUAUAUCUC | 0.24 |
| UAACAAGGGGCCACAGCAGGAGCGUCCACGUCGCAGCCCCUGUCUGAUUCUGGUGAAUCUGCGGAUUCUGCUGUAUAUCUC | 0.13 |
| UAACAAGGGGCCACAGCAGAAGCGUUCACGUCGCUGCCCCUGUCAGAUUCUGGCGAAUCUGCGAAUUCUGCUGUAUAUCUC | 0.07 |
| UAACAAGGGGCCACAGCUGAAGCGUUCACGUGGCAGCCCCUGUCAGAUUCUGGUGUAUCUGCGAGUUCUGCUGGAUAUCUC | 0.03 |
| UAACAAGGGGCCUCAGCAGAAGCGUUCACGUCGCAGCCCCUGUCAGACUCUGGUGAAUCUGCGAUUUCUGCUAUAUAUCUC | 0.21 |
| UAACAAGGGGCCACAGCAGAAGCGUUCACGUCGCAGCCCCUGUCAGAUUCUGGUGGAUCUGCGAAUUCUGCAGUAUAUCUC | 0.17 |
| UAACAAGGGGCCACAGCAGAAGCGUUCUCGUCGCAGCCCCUGUCAGAUUCUAGUGAAUCUGCGAAUUCUGCUGUAUAUCUC | 0.13 |
| UAACAAGGGGCCACAGCAGAAGCGUUCACGUCGCAGUCCCUGUCAGAUUCUGGUAAAUCUGCGAAUACUGCUGUAUAUCAC | 0.15 |
| UAACAAGGGGCCACAGCAGAAGCGUUCCCGUCGCAGCCCCUGUCAGAUUAUGGUGAAUCUGCGGAUUCUGCUGUAUAUCUC | 0.14 |
| UAACAAGGGGCCACAGCGGAAGCGUUCAUGUCGCAGCCCCUGUCAGAAUCUGGUGAAUCUGCGAAUUCUGCUGUAUAUCUC | 0.04 |
| UAACAAGGGGCCACAGCUGAAGCGUUCACGUCGCAGCCCCUGCCAGAUUCUGGUGAAUCUGCGAAUUCUGCUGUAUAUCUC | 0.36 |
| UAACAAGGGGCCACAGCAGAAGCGUUCGCUUCGCAGCCCCUGUCAGACUCUGGUGAAUCUGCGAAUUCUGCUGCAUAUCUC | 0.14 |
| UAACAAGGGGCCACAGCAGUGGCGUUCACGUCGCAGCCCCUGUCAGAUUCUGGUGAAUCUGCGAAUUCUGCUGUAUGUCUC | 0.08 |
| UAACAAGGGGCCACAGCAGAGGCGUUUACGUCGCAGCCCCUGUCUGAUUCUGGUGAAUCUGCGAACUCAGCUGUUUAUCUC | 0.03 |
| UAACAAGGGGCCACAGCAGAAGCGUUCCCGUCGCUGCCCCUGUCAGAUUCCGGUGAAUCUGCGGUUUCUGCUGUGUAUCUC | 0.04 |
| UAACAAGGGGUCACAGCAGAAGCGUUCACGUCGCAGCCCCCGUCAGAUUCUGGUGAAUCUGCGAAUUCGGCUGUACAUCUC | 0.14 |
| UAACAAGGGGCCACAGCAGGAGCGUUCACGUCGCCGCCCCUGUCAGAUUCUGGAGAAUCUGCGAAUUCUGCUGUAUAUCUC | 0.35 |
| UAACAAGGGGCCACAGCAGAAGCGUUAACGUCGCGGCCCCUGUCAGAUUCUGGUGAAUCAGCGAAUUCUGCUGUAUAUCCC | 0.18 |
| UAACAAGGGGCCACAGCAGAAGCGUUCGCGUCGCAGCCCCUGUCAGAUUCUGGUGAAUCUGCGAGUUCUGCUGUGUAUCCC | 0.04 |
| UAACAAGGGGCCACAGAAGAAGCGUUCACGUCGCAGCCCCCGUCAGAUUCUGGUGAAUCUGCGGAUUCUGCUGUGCAUCUC | 0.16 |
| UAACAAGGGGCCACCGCAGAAGCGUUCACGUCGCAGCCCCAGUCAGAUCCUGGUGAAUCUGCGAAUACUGCUGUAUAUCUC | 0.05 |
| UAACAAGGGGCCACGGCAGAAGCGUUCACGUCGCAGCCCCUGACAGAUUCUGGUGAAUCUGCGAAUUCAGCUGUAUAUCUC | 0.11 |
| UAACAAGGGGCCACAGCAGAAGCGUUCACGUCGCAGCCCCUGUCAGGUCCUGGUGAAUCUGCGCAUUCCGCUGUAUAUCUC | 0.08 |

| Variant | self-cleavage |
| --- | --- |
| UAACAAGGGGCCACAGCAGUGGCGUUCACGUCGCAGCCCGUGUCAGAUUCUGGUGAAUCUGCGAAUUCUGCUGUAUGUCUC | 0.22 |
| UAACAAGGGGCCACAGCAGAAGCGUUCACGUCGCGGCCCCUGUCAGAUUCUGGUGAGUCUGCGAAUUCUGCCGUUUAUCUC | 0.3 |
| UAACAAGGGGCCACGGCAGAGGCGUUGACGUCGCAGCCCCUGUCAGAUUCUGGUGAGUCUGCGAAUUCUGCUGUAUAUCUC | 0.07 |
| UAACAAGGGGCCACAGCAGAGGCGUACGCGUCGCAGCCCCAGUCAGAUUCUGGUGUAUCUGCGGAUUCUGCUGUAUAUCUC | 0.39 |
| UAACAAGGGGCCACAGCAGGAGCGUUCACGUCGCAGCCCCUGUCAGAUUCUGGUGAAUCUGCGAAUUCUGCUGUAUAACUC | 0.09 |
| UAACAAGGGGCCACGGCAGAAGCGUUCACGUCGCAGCCCCUGUCAGAUUCUGGUGAAUCUGCGAAUUCCGCUGUAUCUCUC | 0.08 |
| UAACAAGGGGCCACAGCAGAAGCGUUCGCGUCGCAGCCCCUGUCAGAUUCUGGCGAAUCUGCGAAUUCUGCUGUAUAUCUC | 0.16 |
| UAACAAGGGGCCACAGCAGAAGCGUUCACGUCGCGGCCCCUGUCAGAUUCUGGUGAACCUGCGAAUACUGCAGUAUAUCUC | 0.08 |
| UAACAAGGGGCCACAGCAGAGGCGUUCACGUCGCAGCCCCUAUCAGAUUCUGGUGAAUCUGCGAAUUCUGCCGUAUAUCUC | 0.32 |
| UAACAAGGGGCCACAGCAGGAGAGUUCACGUCGCAGCCCCUGUCAGAUUCUGGUGAAUCUGCGAAUUCUGCUGUAGAUCUC | 0.44 |
| UAACAAGGGGCCACAGCAGAAGCGUUCGCGUCGCAGCCCCUGUCAGAUUCUGGUGAAUCUGCGAACCCUGCUGUAUAUCUC | 0.17 |
| UAACAAGGGGCCACGGCAGAAGCGUUCACGUCGCAGCCCCGGUCAGAUUCUGGUGAAUCUGCGAAUUCUGCUGUAUAUCUC | 0.19 |
| UAACAAGGGGCCACAGCCGAAGCGUUCACGUCGCAGCCCCUGUCAGAUCCUGGUGGAUCUGCGAAUUCUGCUGUAUAUCCC | 0.06 |
| UAACAAGGGGCCACAGCAGAAGCGUUCACGUCGCAGCCCCUGUCAGGUUCUGGUGAAUCUGCGAAUCCUGCUGUAUAUCUC | 0.08 |
| UAACAAGGGGCCACAGCGGAAGCGUACACGUCGCAGCCCCUGUCAGAUUCUGGUGAAUCUGCGAACUCUGCUGUAUAUCUC | 0.33 |
| UAACAAGGGGCCACGGCAGAAGCGUUCACGUCGCAGCCCCCGUCAGAUUCUGGCGACCCUGCGAAUUCUGCUGUAUAUCUC | 0.23 |
| UAACAAGGGGCCACAGCAGAAGCGUUCAUGUCGCAGCCCCUGUCAGAUUCUGGUGAAUCUGCGGAUUCUGCUGUAUAUCUC | 0.42 |
| UAACAAGGGGCCACCGCAGUAGCGUUCACGUCGCAGCCCCUGUCAGAUUCUGGUGGAUCUGCGAACUCCGCAGUAUAUCUC | 0.05 |
| UAACAAGGGGCCACAGCAGAAGCGUUUACGUCGCAGCCCCUGUCAGACUCUGGUGAAUCUGCGAAUUCUGCUGUAUAUCUC | 0.4 |
| UAACAAGGGGCCACAGCAGAGGCGUUCACGUCGCGGCCCCUGACAGAUUCUGGUGCAUCUGCGAAUUCUGCUGUAUGUCCC | 0.06 |
| UAACAAGGGGACACAGCGGAAGCGUUCACGUCGCAGCCCCAGUCAGAUUCUGGCGAAUCUGCGAAUUCUGCUGUAUAUCUC | 0.06 |
| UAACAAGGGGCCACAGCAGAAGCGUUCACGUCGCAGCCCAAGUCAGAUUCUGGUGAAUCUGCGAAUUCUGCUGUAUAUCUC | 0.08 |
